The results in this text go back to the RNAGym collection of RNA variant scans (doi:10.7554/elife.90254).

First the molecules themselves.
B1: LINE1-full (parent)
chain: UACGUAGGUGGUUUUCCCCUGAUAGUGCUAAGGGGGCCUGGAAGUUUGGACUGGGCAGAGCUCAACACAGCGUGGCAAAGUGGCUGUGGCUAGACUGCCUCUCUGGAUUCCUCGUCACUCAGCAGGGCAUCUCUGAGAGAAAUGCC

The source gives no read counts; variants with many changes may rest on few reads.

The data set covers variants of B1. The experiment in a line: self-cleavage, relative activity (ratio to wild type); higher = more cleavage; in vitro, sequencing; the parent is a self-cleaving ribozyme.
A22G U45A U115C A142G: the self-cleavage is 1.94.
Then A30G A42G U115C, with 0.4; and U96C U100C A142G, with 0.31; and U20C U26C C123A, with 1.01.
With U9A U45A U47C A78G U87A, the self-cleavage was 0.11.
As for A42U G93U C110G, the self-cleavage worked out at 0.02.
Then U39C A64U U134C, with 0.44; and A31G U91C C110U, with 0.94.
In the case of C37U C38U U39C it was 0.98.
With U13C A78G U100C, the self-cleavage is 0.98.
For U12C U134A A138G, the self-cleavage was found to be 1.55.
Consider A50G A64U A136U, for which the self-cleavage amounted to 0.62.
In the case of U45C A140G A141U, the self-cleavage stood at 0.24.
In the case of U13A U15A C28G A50U A59G U73C A94U it was 0.24; in that of G82A A121G A138U, 1.91.
Consider U29C A42U A136G, for which the self-cleavage stood at 1.12.
As to A6G A43G U62C G97A, the self-cleavage was 0.11.
Then C19U G83A U112C U119C, with 1.02; and U12C U85C U143C, with 0.26; and U1A U62C U85A A124G, with 0.15.
Turning to U85C U87G A117G, the self-cleavage came out at 0.
Turning to A22G U45C U85G C98A, the self-cleavage stood at 0.08.
For the variant U9C U15A A138G, the self-cleavage turned out to be 0.89.
Consider G49U A57U A121C, for which the self-cleavage was found to be 0.08.
Then U1A U5A U62C G86A U134C A138G, with 0.07.
For U12A U73C A77G A136G, the self-cleavage is 1.45.
Then U20C A59G U87A U132A, with 0; and U13C U15C U46A G60C A77G U96G, with 0.31; and U5C C28U A77G U115A A138C, with 1.46.
In the case of A42U U62C A64U it was 0.06.
In the case of U13C U46A A138G it was 1.93; in that of G33U U46C U52C U85C A92U U132A, 0; in that of A22G G114U C128A U130C, 1.12.
For the variant U15C U39A U73C A117U, the self-cleavage came to 1.15.
For U12C U13C U45C U62C, the self-cleavage stood at 0.
Then U13A A22G A50C, with 0.64; and G21A U62C U96C, with 0.13.
In the case of U14A G44A U112A, the self-cleavage came to 0.75.
Regarding U14A A64C G126U A129G, the self-cleavage was 0.4.
Then G54C U109A A138G U143C, with 0.28; and U9C A42G G48A A65G, with 0.15; and U13C G25A A79G, with 1.16.
Then U9C A65G A79G U87A, with 0.16.
Then A22G A65U A79U, with 0.15; and G7A U47A G82U U132C, with 1.04; and A2G G21A A142G, with 0.76.
Consider U20C C56A U112C A140G, for which the self-cleavage stood at 0.05.
As to C3U A43G U104A, the self-cleavage was found to be 0.15.
Then U20C U47A G54A, with 0.18; and A43G A59G A78U G93A, with 0.02; and U13A U14C U46C A124G A136C A140G, with 0.42.
In the case of A43C U46C G86A U104C A142G it was 0.22.
G4C G74U A92G: the self-cleavage was found to be 0.12.
Then C63U A69G U85A A141G, with 0.04; and U12C G21A U81A A129U A142G, with 1.53.
Turning to A43G A57U G97A, the self-cleavage is 0.06.
In the case of U12G U47A G89C it was 0.12; in that of A64C U108C U119C, 0.57.
With G7A A42G U100A U119C, the self-cleavage was determined as 1.23.
For the variant C90A A94G A138G, the self-cleavage is 0.02.
As for G33A A65G A92G, the self-cleavage was found to be 0.
Then U47C A107G A136G, with 1.36; and U1C A2U U20C A57G A69U A121U, with 0.19.
On to U13C C63A A64G A79G, for which the self-cleavage amounted to 0.03.
In the case of U87A A121G A138G, the self-cleavage was 0.18.
Then G25A U45C U47C, with 0.82; and G21A U73C G74U U108A, with 1.92.
Take U14C A22G U109C: the self-cleavage is 0.62.
For U13C U46C G60A U62A, the self-cleavage came to 0.1.
In the case of A6U U13A A31U U39C A94U, the self-cleavage was determined as 0.6.
Then U1C A50U U104G, with 0.
For the variant U9C A64C U109C, the self-cleavage turned out to be 0.9.
In the case of A31U U73A A77U it was 1.45; in that of A31U U39A G53U A92U U100C, 0.22.
Consider U9C A57G A117G, for which the self-cleavage turned out to be 0.46.
For U23C A30G U87C A138G, the self-cleavage worked out at 0.
In the case of U14A A107G U119A it was 1.21; in that of U15C C19U U108C, 1.48; in that of U1C A136G A140G, 1.26.
For A77G A78G G139A, the self-cleavage was determined as 2.51.
Consider G10A G44A A59G, for which the self-cleavage came to 0.15.
With U47C A94U C131A A138G, the self-cleavage came out at 0.47.
Then U81A A92G G114A, with 0.12; and A79U U112C A142U U143G, with 1.74.
In the case of U87C A121U U143C, the self-cleavage amounted to 0.32.
In the case of U81C U91A A117U A121G U134C it was 1.15; in that of A31U U112C U130C, 0.57; in that of G36U U134A A140G, 0.37.
As to A30U C63U A140G, the self-cleavage came out at 0.36.
Then U12C A30G C131A, with 0.89.
In the case of U5A U15A U47C G72U it was 1.06; in that of A31G U132C A140G, 0.78; in that of A42G A59G A77G, 0.
In the case of U14C A64U U143A it was 0.15.
Regarding U47C G55A A59U A138G, the self-cleavage turned out to be 0.64.
Take C18U U47C G83A U119A: the self-cleavage was determined as 1.17.
As to U5C U73A A129G U132C, the self-cleavage was determined as 1.91.
Regarding U26A A77U U81A A107G, the self-cleavage was determined as 1.51.
Then U39A A69G A138G, with 0.53.
Then U26A A43G U85C U115C A141G, with 0.28.
Then U9C U39A A77G G125A U130A G137A, with 1.8.
In the case of G35A A67G U115C, the self-cleavage came out at 0.
Turning to G44A G82A C84U U115C, the self-cleavage stood at 0.34.
With A6G U62C A77G, the self-cleavage came out at 1.23.
Then A2G A65G U96C U109A, with 0.42; and U62A A78G U85C G139A, with 0; and U9C U115C U130A A142G U143C, with 0.
In the case of U9C U12G A43G A77U, the self-cleavage amounted to 1.51.
Take U12C A129G A136U: the self-cleavage is 2.69.
In the case of G25A A77C A79U U132C it was 0.63.
Then U9G A43G U45G U46C C146U, with 2.22; and U46C A79C U104A, with 1.84; and U39C U85G U91C, with 0.
Take U13G U52A A77G U102A: the self-cleavage worked out at 0.75.
For A22U A67U U81A G114A, the self-cleavage is 0.06.
Regarding C19U U73C U96A U104A, the self-cleavage is 0.04.
For G7A U15C C101U U119A, the self-cleavage was found to be 1.15.
Consider U1C U87G U112C, for which the self-cleavage is 0.
U14C A67G C123U A124G: the self-cleavage came out at 0.65.
For U1C U13C U73G A92G A138G, the self-cleavage amounted to 0.
Then U62A A117G A140G, with 0.11.
Consider A6G A78G A117G, for which the self-cleavage was 1.97.
As to G32A A67G U115A A121G, the self-cleavage was found to be 0.17.
Then U14C U47A U115C, with 1.16; and U46C A57U U115C, with 0.75; and A6G A65G A77U, with 0.12.
For U26G U52A G89A A136G, the self-cleavage stood at 0.03.
With A67G U73A A140U, the self-cleavage was 0.51.
G11A U15A C28A A138G: the self-cleavage stood at 0.83.
Then U12A U46C A50G G105A G122A, with 0.8; and U23C U96C U104A U134A A138G, with 0.08.
Take A24U C63U A78G: the self-cleavage stood at 0.49.
For the variant U14A A78G U91C, the self-cleavage was found to be 0.08.
Regarding U46C A69U C71A, the self-cleavage is 0.02.
Then U52G U62C U134A A142G, with 0.
In the case of A42G U100A A107G it was 1.05.
In the case of G34A U45G U62A A64G U87A it was 0.06; in that of G32A G75C A78G, 0.19.
A2C G36A A59U U100G C116A: the self-cleavage worked out at 0.69.
Regarding U47A U100C U132C, the self-cleavage came out at 1.99.
In the case of A77G C98A U102C U143C it was 0.39; in that of U1C C19U U143A, 0.65; in that of A2G U47A U73A A117G, 1.36.
Then A31G U102A G114A A142G, with 1.27; and U12C U46C U85C, with 0.15.
Regarding A6U A31U A136U, the self-cleavage is 1.29.
In the case of A77U A107C A121G it was 0; in that of U12G A94U U112A, 0.32; in that of U14C A43U A78C G106A A117C, 2.85.
Then U52A U62C A92U A117G A140U, with 0.
Regarding U29C A64G A136G, the self-cleavage is 0.48.
Then U9C G74U C113U, with 0.47; and A24G U26A A117G, with 2.8; and C17A A94G U143C, with 0.13.
As to A59G A64C A77U G122A A140C, the self-cleavage was 0.04.
For the variant U13C U46C U112C U143G, the self-cleavage is 1.37.
In the case of A42G G75A U108A it was 0.74; in that of G10A U45G U112C, 0.87.
Then G4C U13C U62A U73A U143A, with 0.09; and U9A G48A A94U, with 0.28.
In the case of U102C A136G A142G it was 0.97.
Consider G4C U134A A142G, for which the self-cleavage came out at 0.22.
U26C A94G A140G: the self-cleavage turned out to be 0.13.
Then U47C U119A A140G, with 1.32.
Consider U20C U46C A79G G89A U102A, for which the self-cleavage was determined as 0.06.
As to C37U U46C A65G A77U, the self-cleavage was determined as 0.02.
Consider G4A U9C A43G C118G U130C A140G, for which the self-cleavage was determined as 0.71.
